# Reference: the supplement of paper PMC11417369
# This is one part of the list.
# Tested on: PF3D7_0420300 AP2 domain 1 (GST-tagged)
# Test: gcPBM binding intensity (ln(normalized median fluorescence intensity)); higher = stronger DNA binding
# Summary of the method: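 Plasmodium falciparum DNA-binding domains carrying a GST tag were expressed in E. coli and applied for 1 h, at about 25 μg on average, to an Agilent 4 × 180k array. The array held primer-extended double-stranded 36-bp intergenic genomic probes together with negative controls, and binding took place in 1× PBS with 1% milk, 0.2 mg/ml BSA, 0.5% salmon testes DNA and 0.03% Triton X-100. An Alexa488 anti-GST antibody detected bound protein, and the array was scanned at 488 nm. Binding intensity is taken as the highest Masliner-normalised natural-log median intensity across replicate spots of either probe orientation.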
row,Sequence,gcPBM binding intensity (ln)
1,TATATATTTTTTTCATGTACTTATTATATATATATA [XGTACX_site5321],9.34
2,AGTATAGATGTATACACACACCAAACGTTAAAAAAA [CACACA_site7443],9.66
3,TTTCAAAATTTTTATTTTAAATAAACATTTATAAAA [CACACA_negctrl_site1588],8.59
4,ATTTATTTATTTATATGTACTTAAATGAAAGGAATA [XGTACX_site6024],8.96
5,ATATGGCACATATGTACACACGTATAGATAATATTA [CACACA_site5162],9.42
6,CCGATATAATGGAAAACACACAAAAGATATATATAT [CACACA_site2683],9.73
7,ACATACATTTTTAAATGTACATATATATATATATAT [XGTACX_site6751],9.23
8,AATATTATATGGACGTGTCCACATAAACCTATATAT [XGTACX_site2053],9.19
9,TTAGTAAATACATTTGCACACATTATTTTTTAACAT [CACACA_site5448],9.55
10,TGTAATTGTTTAAAGGGTACATATATCAGATGTCTT [XGTACX_site5877],9.13
11,TGGAAACAATGACACACACACAAAAAAAAAAAAAAA [CACACA_site7494],9.68
12,TTTTGTTTTTGTAGAGTGCATAAAGAAGATATGTAT,9.1
13,AAAAATTAAAATATAACTAATTAATTTGTATTCATT [CACACA_negctrl_site1633],9.09
14,TATAAATACTTAGAAACACACAAAAATATTTTATAA [CACACA_site7259],9.4
15,ATAATAATATTTCTATGTACTTATTTTATGTATTAG [XGTACX_site1747],9.41
16,TTATCTCTACAAAGTGCACACACGTAAAAACATATA [CACACA_site3957],9.44
17,GTAGGGGAAAAAAAAACACACAAAAAACAACAGATC [CACACA_site1187],9.92
18,CATTATGTTGTAAATACACACATACAGATACATACA [CACACA_site4565],9.54
19,TTTTTTGGTTTTCATGCACACAATTTATAAATCTAT [CACACA_site3106],9.61
20,TAAAGGCAAACAAACACACACACATAAATACAGATA [CACACA_site5204],10.2
21,ATATGCGTTTGCAAATGTACATATTATTTATATATA [XGTACX_site7128],9.23
22,ATAATTCTTTTACTGTGTACATATTATCACTTATTT [XGTACX_site2456],9.64
23,AAAAAGAAAAAATATATTCGTCTATTATAAACAATA [CACACA_negctrl_site648],9
24,TAAATATTAACAATCGCACACATATTATTTTTCCAA [CACACA_site1626],9.32
25,GAATATATATTCATATGTACACAATTTATGTATTAT [XGTACX_site4719],9.36
